# Experimental data reported in PubChem BioAssay AID686979 (National Center for Advancing Translational Sciences (NCATS), 2013).
# “And” between values parts separate entries of the source, which are not always exact repeats. Identical values can stand only once. Hit rate of the full screen: of about 420,000 compounds, about 50,000 (12%) were called active. This list was built around the results that the source calls inconclusive (neither active nor inactive); the mix of calls is not that of the screen. The call rests on the fitted dose curve; in most records, active means well fitted inhibition curve with a large enough effect; inconclusive means small, poorly fitted or top-dose-only effect; inactive means flat fitted curve, though single readings scatter. Potencies of inconclusive entries are doubtful fits and often do not repeat.
# Assay: qHTS for Inhibitors of human tyrosyl-DNA phosphodiesterase 1 (TDP1): qHTS in cells in presence of CPT; further: nearly all actives have a fitted effect of over 55% in size
# Settings: chicken DT40 Tdp1-/-;hTDP1 cells + 20 nM CPT, ATP luminescence, 48 h; activity change, negative = growth inhibition: at 46.2 µM (top of the series) unless noted
# Outline: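 Cell growth measured by CellTiter-Glo luminescence after a minimum 48 h, 37 C compound exposure with 20 nM CPT in Tdp1-knockout DT40 cells stably expressing hTDP1, seeded 400/well; qHTS titration format.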
# On the % scale 0 is the no-effect control and ±100 the full control effect; potency means the concentration at half of the fitted maximal effect; tags describe the fitted curve by direction and shape.
Structure (SMILES),Potency,"activity change, negative = growth inhibition"
Cc1ccc(C(=O)c2cn(CC(=O)Nc3ccc4c(c3)OCCO4)c3nc(C)ccc3c2=O)cc1,"inconclusive: 20.6 µM [inhibitor, single point]",
CCOc1ccc(Nc2c(S(=O)(=O)c3ccccc3)cnc3ccc(CC)cc23)cc1,"inconclusive: 25.9 µM [inhibitor, single point]",
COc1ccc(-c2ccc(C(=O)Nc3ccc4c(c3)OCO4)c3occc23)c(C)c1,"inconclusive: 29.1 µM [inhibitor, partial curve, poor fit]",
O=C1C2C3C=CC(CO)(O3)C2C(=O)N1c1ccccc1-c1ccccc1 (stereo not drawn),active: 2.59 µM,
CCc1cc(CN2CCOCC2)c(NC(=O)c2ccccc2)s1,inactive,
Cc1[nH]c2ccccc2c1C(=O)C(C)OC(=O)c1ccc([N+](=O)[O-])o1 (stereo not drawn),"inconclusive: 10.3 µM [inhibitor, partial curve]",
CC(=O)Nc1cc(-c2nc3ccccc3o2)ccc1Cl,inactive,
CC[C@]12c3[nH]c4ccc(OC)cc4c3CCN1C(=O)C(CC(=O)NCC13CC4CC(CC(C4)C1)C3)C[C@@H]2C(=O)N1CCN(C(=O)c2ccco2)CC1 (stereo partly drawn),active: 11.6 µM,
CCCN(CC(=O)Nc1ccc(Cl)cc1Cl)Cc1cc(=O)n2ccsc2n1,"inconclusive: 20.6 µM [inhibitor, single point]",
O=C(NNC(=O)C1CCC1)c1ccc(F)cc1,inactive,
COc1ccc(C(O)c2nc(-c3cc(F)cc(Cl)c3)cs2)cc1 (stereo not drawn),"inconclusive: 18.4 µM [inhibitor, single point]",
CSc1oc(-c2ccc(F)cc2)nc1S(=O)(=O)c1ccc(Br)cc1,"inconclusive: 18.4 µM [inhibitor, single point]",
CSc1nnc2n(C)c3c(c(=O)n12)C1(CCCC1)Cc1ccccc1-3,"inconclusive: 13 µM [inhibitor, partial curve]",
Cc1ccc(S(=O)(=O)N(C)C)cc1NC(=O)c1ccc2ccccc2n1,active: 20.6 µM,
O=C(NCc1n[nH]c(=O)c2ccccc12)C1CC(=O)N(c2ccc(Cl)cc2)C1 (stereo not drawn),"inconclusive: 25.9 µM [inhibitor, single point]",
O=C(CSc1nc2ccccc2n1Cc1ccccc1)NCc1ccccc1,inactive,
COc1cc(C(=O)NCc2nnc(SCC(=O)Nc3nc4ccccc4s3)o2)cc(OC)c1OC,active: 9.2 µM,
COc1ccc(S(=O)(=O)N2CCOCC2)cc1NC(=O)COC(=O)c1[nH]c(C)c(C(C)=O)c1C,inactive,
CN1CCCC(CNC(=O)c2cnn(-c3nccc(-c4cccs4)n3)c2C2CC2)C1 (stereo not drawn),,inactive: -8.75% [at 9.04 µM]
COCCN1C=C(C(=O)OC)C(c2ccc3c(c2)OCO3)C(C(=O)OC)=C1,inactive,
COC(=O)C1CC(O)CN1C(=O)NC1CCCCC1 (stereo not drawn),inactive,
Cc1noc(C)c1COc1ccc(C(=O)NNC(=O)c2ccccc2O)cc1,"inconclusive: 18.4 µM [inhibitor, single point]",
CCC(C)(C)c1ccc(OC(=O)c2cccnc2Cl)cc1,"inconclusive: 29.1 µM [inhibitor, single point]",
Cc1ccc(C(=O)Nc2cccc(S(=O)(=O)N3CCCCC3)c2)cc1[N+](=O)[O-],active: 16.4 µM,
CCOC(=O)c1c(-c2ccccc2)nc2ccccn12,"inconclusive: 25.9 µM [inhibitor, single point]",

Structure (SMILES),Potency,"activity change, negative = growth inhibition"
CC(C)C1CC(CCN)(c2ccccc2)CCO1 (stereo not drawn),"inconclusive: 18.4 µM [inhibitor, single point]",
Cn1ncc2c(Nc3ccc(Cl)cc3)ncnc21,"inconclusive: 23.1 µM [inhibitor, single point]",
O=C(COc1ccc2cc(Br)ccc2c1)N1CCOCC1,active: 14.6 µM,
COc1ccccc1Cc1c(-c2ccc(C#N)cc2)nc2c3ccccc3ccn12,active: 20.6 µM,
Cc1cc(C)cc(OC(C)C(=O)Nc2nc3c(s2)CCCC3)c1 (stereo not drawn),"inconclusive: 29.1 µM [inhibitor, single point]",
Cc1cc(C)cc(C(=O)NCCCN2CCOCC2)c1,inactive,
O=C(Nc1cccc([N+](=O)[O-])c1)C1CCN(C(=O)Cc2ccccc2)CC1,inactive,
Cc1ccc(-n2nc3ccc(NC(=O)c4ccco4)cc3n2)cc1,"inconclusive: 29.1 µM [inhibitor, single point]",
O=C(NCc1nc2ccccc2[nH]1)C1=C[C@@H](c2csc3ccccc23)C[C@@H](OCCCCO)O1,"inconclusive: 20.6 µM [inhibitor, single point]",
COc1ccc2c(c1)c(=O)c(C(=O)c1ccc(C)cc1)cn2CC(=O)Nc1ccc(F)cc1,"inconclusive: 29.1 µM [inhibitor, single point]",
COc1ccc(CN2C(=O)C(O)(CC(=O)c3c(C)n[nH]c3C)c3ccccc32)cc1OC (stereo not drawn),"inconclusive: 23.1 µM [inhibitor, single point]",
Cc1ccc(OC(F)F)c(NC(=O)Nc2cccc(C(F)(F)F)c2)c1,active: 12.6 µM,
O=C(NC1CCN(Cc2ccccc2)CC1)c1ccc(CS(=O)c2ccc(F)cc2)o1 (stereo not drawn),inactive,
CCCOc1ccc(F)cc1-c1cc(C(=O)NCc2cccc(Cl)c2)[nH]n1,active: 23.1 µM,
COc1ccc(C(=O)c2ccc(N(C)C)cc2)c2ccccc12,active: 1.03 µM,
N#C/C(=C\c1ccc(O)c(O)c1)C(=O)NCCc1ccccc1,"inconclusive: 25.1 µM [inhibitor, single point] and inconclusive: 1.46 µM [inhibitor, partial curve, poor fit]",
Cc1ccc(S(=O)(=O)NCCOc2nc(N(C)C)nc(N(C)C)n2)cc1,"inconclusive: 20.6 µM [inhibitor, single point]",
CC1=CC=CC2=NC(=O)CC(C)(C(=O)N(CC(=O)NC3CCCC3)c3ccc(F)cc3)N12 (stereo not drawn),inactive,
CCOC(=O)C1(CCOC)CCN(Cc2ccc3nonc3c2)CC1,inactive,
O=C(NCCCN1CCCC1)c1ccc(CSCc2cccc(Cl)c2)o1,,inconclusive: -34.5% [inhibitor]
CCN(CC)c1ccc2cc(S(=O)(=O)c3ccc(C)cc3)c(=O)oc2c1,"inconclusive: 29.1 µM [inhibitor, single point]",
COc1ccc(NC(=O)c2ccco2)cc1NC(=O)c1ccc(OC(C)C)cc1,"inconclusive: 20.6 µM [inhibitor, single point]",
CCCc1nc2c3ccccc3ccn2c1Cc1ccccc1,active: 18.4 µM,
Cc1cc(Cl)ccc1OCC(=O)NCCCN1CCOCC1,inactive,
COc1cccc(OCCn2cc(C(C)=O)c3ccccc32)c1,active: 11.6 µM,

Structure (SMILES),Potency,"activity change, negative = growth inhibition"
CCCC(C(=O)Nc1cc(C)c(Cl)cc1OC)N1Cc2ccccc2C1=O (stereo not drawn),"inconclusive: 29.1 µM [inhibitor, single point]",
N#CCC(=O)Nc1ccc(C(=O)OCC(=O)NC(=O)NCc2ccco2)cc1,inactive,
O=C(c1ccccc1)c1ccc(C(=O)N2CCN(c3ccccc3Cl)CC2)cc1,"inconclusive: 29.1 µM [inhibitor, single point]",
COc1cc(NC(=O)Cn2cc(S(=O)(=O)N3CCC(C)CC3)c3ccccc3c2=O)cc(OC)c1OC,"inconclusive: 16.4 µM [inhibitor, single point]",
COc1ccc(NC(=O)CN2C(=O)CSc3ncccc32)cc1,inactive,
CN(NC1OC(=O)c2ccccc21)c1ccc(C(F)(F)F)cc1[N+](=O)[O-] (stereo not drawn),inactive,
CC(=O)N1c2ccccc2CC1C(=O)N1CCN(c2ccccc2F)CC1 (stereo not drawn),"inconclusive: 29.1 µM [inhibitor, single point]",
CC(=O)c1sc2nsc(SCCN3CCCC3)c2c1N,active: 25.9 µM,
COc1ccc(N2CCN(CNC(=O)c3ccccc3)CC2)cc1,inactive,
CCN(CC)S(=O)(=O)c1ccc(NC2c3ccccc3C(=O)N2CCN2CCOCC2)cc1 (stereo not drawn),"inconclusive: 29.1 µM [inhibitor, single point]",
CCOC(=O)c1ccc(NC(=O)C2CCCN(c3cnccn3)C2)cc1 (stereo not drawn),"inconclusive: 29.1 µM [inhibitor, single point] and inconclusive: 23.1 µM [inhibitor, partial curve]",
CN1CCN(CC(C)(C)NS(=O)(=O)c2ccc(Cl)cc2)CC1,"inconclusive: 29.1 µM [inhibitor, single point]",
N#Cc1ccc(Cl)cc1NC(=O)CSc1cccc[n+]1[O-],"inconclusive: 29.1 µM [inhibitor, single point]",
CCCNC(=O)c1ccc(COc2ccc(C(C)(C)C)cc2)o1,"inconclusive: 29.1 µM [inhibitor, single point]",
COc1ccc(Oc2ncnc3c2oc2ccccc23)cc1,"inconclusive: 16.4 µM [inhibitor, single point]",
COc1ccc(N2CCN(C(CNC(=O)c3ccc4c(c3)OCO4)c3cccnc3)CC2)cc1 (stereo not drawn),inactive,
COc1ccc(/C=C2\CCCC3C2=NN(C(=O)CSc2ncn[nH]2)C3c2ccc(OC)cc2)cc1 (stereo not drawn),active: 18.4 µM,
CCCN1CCC(=NNc2ccc(S(=O)(=O)N(CC)CC)cc2[N+](=O)[O-])CC1,active: 2.06 µM,
COc1cn(CC(=O)Nc2cccc(C)c2)c(CN2CCCCC2)cc1=O,inactive,
CCOc1ccc(N2C=Nc3ccc(OCC)cc3C2)cc1,active: 20.6 µM,
Cc1ccc(Nc2nnc(SCC(=O)NC3CC3)s2)cc1,inactive,
COc1cc2c(cc1OC)-c1nc3ccccc3c(=O)n1C(C)(C)C2,"inconclusive: 29.1 µM [inhibitor, single point]",
Cc1ccc(S(=O)(=O)N2CCCCC2)cc1NC(=O)c1nn(C)c(=O)c2ccccc12,"inconclusive: 29.1 µM [inhibitor, single point]",
